# The supplement of paper PMC8728848
# The other results are listed elsewhere or left out.
# B1: PX9961V-pdi-562-26-562 (Parabacteroides distasonis) (protein)
# chain: EIFSEITTDNYYQNSNNIYAALVNNYAKAFSTGWSDARYFLQEVTADQLMIPTRGKHGYNGGEYVRLHEHKWTVEENFVYNGWAAPFQGIALCNNTLSDFENLDFSTFKLTEETKNEYIAELRALRVWNYMFLIDFFRHVPIVTDIEEVKAQSTPLEVFNFMESELLAILPDLPKNRGVSRFDQAGVASILVRLYLNAEKWIGISKYDECEQMAQAILDGKYGEYSIDPDYRGPFRSGINGYRSKENIMEFAIKKNYFEASWLYNMWMHYQDRYSLDNDWQGWNGGNLAPSRDLYGNLYQDKLGMPFEKFPDGDIRKKAFRVISNDGDYEGFFLMGTQYKFDYEKGYGFTDEVITGTEEYNGKPLVYVDQVGRFSEGETGLAKGSHVIYGEENTGYRLIKFPWLPQSKDLFQMNSIPEIRLAEIYYSLAECKYRSGDKIGAARLLDVVRKRYYKAEDWSKFSYESNISKLTDDEFVDELGREFIGERHRRIDLIRWNRFSEGAWWDKTPDATNQDVFPIPYRALNANPLLKQTTAGF
# How the values were obtained:
# Assay in all cases: glycan array binding signal (z-score within array); higher = stronger binding
# Details in all cases: glycan notation: IUPAC condensed, linker removed
# Glc(b1-6)Glc = molecular target: Glc(b1-6)Glc
# Procedure, shortened: (§1)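 The binding signal is a Z-score computed within each array. Data were drawn from 3228 arrays in the Consortium for Functional Glycomics database, restricted to those with a known protein sequence. Scores were averaged over arrays of the same protein sequence at different concentrations or buffers, and over linkers, and negative values can be taken as non-binding.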
# GlcA(b1-3)Gal = molecular target: GlcA(b1-3)Gal
# Procedure, shortened: as §1
# GlcA(b1-3)GlcNAc = molecular target: GlcA(b1-3)GlcNAc
# Procedure, shortened: as §1
# GlcA(b1-6)Gal = molecular target: GlcA(b1-6)Gal
# Procedure, shortened: as §1
# [1] = molecular target: GlcA3S(b1-3)Gal(b1-4)GlcNAc(b1-2)Man
# Procedure, shortened: as §1
# [2] = molecular target: GlcA3S(b1-3)Gal(b1-4)GlcNAc(b1-3)Gal(b1-4)Glc
# Procedure, shortened: as §1
# [3] = molecular target: GlcNAc(a1-3)Gal(b1-4)GlcNAc
# Procedure, shortened: as §1
# [4] = molecular target: GlcNAc(a1-4)Gal(b1-3)GlcNAc
# Procedure, shortened: as §1
# [5] = molecular target: GlcNAc(a1-4)Gal(b1-4)GalNAc
# Procedure, shortened: as §1
# [6] = molecular target: GlcNAc(a1-4)Gal(b1-4)GlcNAc
# Procedure, shortened: as §1
# [7] = molecular target: GlcNAc(a1-4)Gal(b1-4)GlcNAc(b1-3)Gal(b1-4)Glc
# Procedure, shortened: as §1
# [8] = molecular target: GlcNAc(a1-4)Gal(b1-4)GlcNAc(b1-3)Gal(b1-4)GlcNAc
# Procedure, shortened: as §1
# [9] = molecular target: GlcNAc(a1-4)Gal(b1-4)GlcNAc(b1-3)Gal(b1-4)GlcNAc(b1-3)Gal(b1-4)GlcNAc
# Procedure, shortened: as §1
# [10] = molecular target: GlcNAc(a1-4)Gal(b1-4)GlcNAc(b1-3)Gal(b1-4)[Fuc(a1-3)]GlcNAc(b1-3)Gal(b1-4)[Fuc(a1-3)]GlcNAc
# Procedure, shortened: as §1
# [11] = molecular target: GlcNAc(a1-6)Gal(b1-4)GlcNAc
# Procedure, shortened: as §1
# [12] = molecular target: GlcNAc(b1-2)Gal(b1-3)GalNAc
# Procedure, shortened: as §1
# [13] = molecular target: GlcNAc(b1-2)Man(a1-3)[GlcNAc(b1-2)Man(a1-6)]Man(b1-4)GlcNAc(b1-4)GlcNAc
# Procedure, shortened: as §1
# [14] = molecular target: GlcNAc(b1-2)Man(a1-3)[GlcNAc(b1-2)Man(a1-6)]Man(b1-4)GlcNAc(b1-4)[Fuc(a1-6)]GlcNAc
# Procedure, shortened: as §1
# [15] = molecular target: GlcNAc(b1-2)Man(a1-3)[GlcNAc(b1-4)][GlcNAc(b1-2)Man(a1-6)]Man(b1-4)GlcNAc(b1-4)GlcNAc
# Procedure, shortened: as §1
# [16] = molecular target: GlcNAc(b1-2)Man(a1-3)[GlcNAc(b1-4)][GlcNAc(b1-2)Man(a1-6)]Man(b1-4)GlcNAc(b1-4)[Fuc(a1-6)]GlcNAc
# Procedure, shortened: as §1
# [17] = molecular target: GlcNAc(b1-2)[GlcNAc(b1-4)]Man(a1-3)[GlcNAc(b1-2)Man(a1-6)]Man(b1-4)GlcNAc(b1-4)GlcNAc
# Procedure, shortened: as §1
# [18] = molecular target: GlcNAc(b1-2)[GlcNAc(b1-4)]Man(a1-3)[GlcNAc(b1-4)][GlcNAc(b1-2)Man(a1-6)]Man(b1-4)GlcNAc(b1-4)GlcNAc
# Procedure, shortened: as §1
# [19] = molecular target: GlcNAc(b1-2)[GlcNAc(b1-4)]Man(a1-3)[GlcNAc(b1-4)][GlcNAc(b1-2)[GlcNAc(b1-6)]Man(a1-6)]Man(b1-4)GlcNAc(b1-4)GlcNAc
# Procedure, shortened: as §1
# [20] = molecular target: GlcNAc(b1-2)[GlcNAc(b1-4)]Man(a1-3)[GlcNAc(b1-4)][GlcNAc(b1-2)[GlcNAc(b1-6)]Man(a1-6)]Man(b1-4)GlcNAc(b1-4)[Fuc(a1-6)]GlcNAc
# Procedure, shortened: as §1
# [21] = molecular target: GlcNAc(b1-2)[GlcNAc(b1-6)]Man(a1-6)[GlcNAc(b1-2)Man(a1-3)]Man(b1-4)GlcNAc(b1-4)GlcNAc
# Procedure, shortened: as §1
# [22] = molecular target: GlcNAc(b1-2)[GlcNAc(b1-6)]Man(a1-6)[GlcNAc(b1-2)Man(a1-3)]Man(b1-4)GlcNAc(b1-4)[Fuc(a1-6)]GlcNAc
# Procedure, shortened: as §1
# [23] = molecular target: GlcNAc(b1-2)[GlcNAc(b1-6)]Man(a1-6)[GlcNAc(b1-4)][GlcNAc(b1-2)Man(a1-3)]Man(b1-4)GlcNAc(b1-4)GlcNAc
# Procedure, shortened: as §1
# GlcNAc(b1-3)Fuc = molecular target: GlcNAc(b1-3)Fuc
# Procedure, shortened: as §1
# GlcNAc(b1-3)Gal = molecular target: GlcNAc(b1-3)Gal
# Procedure, shortened: as §1
# [24] = molecular target: GlcNAc(b1-3)Gal(b1-3)GalNAc
# Procedure, shortened: as §1
# GlcNAc(b1-3)Gal(b1-4)Glc = molecular target: GlcNAc(b1-3)Gal(b1-4)Glc
# Procedure, shortened: as §1
# [25] = molecular target: GlcNAc(b1-3)Gal(b1-4)GlcNAc
# Procedure, shortened: as §1
# [26] = molecular target: GlcNAc(b1-3)Gal(b1-4)GlcNAc(b1-2)Man(a1-3)[GlcNAc(b1-3)Gal(b1-4)GlcNAc(b1-2)Man(a1-6)]Man(b1-4)GlcNAc(b1-4)GlcNAc
# Procedure, shortened: as §1
# [27] = molecular target: GlcNAc(b1-3)Gal(b1-4)GlcNAc(b1-2)Man(a1-3)[GlcNAc(b1-3)Gal(b1-4)GlcNAc(b1-2)Man(a1-6)]Man(b1-4)GlcNAc(b1-4)[Fuc(a1-6)]GlcNAc
# Procedure, shortened: as §1
# [28] = molecular target: GlcNAc(b1-3)Gal(b1-4)GlcNAc(b1-2)[GlcNAc(b1-3)Gal(b1-4)GlcNAc(b1-6)]Man(a1-6)[GlcNAc(b1-3)Gal(b1-4)GlcNAc(b1-2)Man(a1-3)]Man(b1-4)GlcNAc(b1-4)GlcNAc
# Procedure, shortened: as §1
# [29] = molecular target: GlcNAc(b1-3)Gal(b1-4)GlcNAc(b1-3)Gal(b1-4)GlcNAc
# Procedure, shortened: as §1
# [30] = molecular target: GlcNAc(b1-3)Gal(b1-4)GlcNAc(b1-3)Gal(b1-4)GlcNAc(b1-2)Man(a1-3)[GlcNAc(b1-3)Gal(b1-4)GlcNAc(b1-3)Gal(b1-4)GlcNAc(b1-2)Man(a1-6)]Man(b1-4)GlcNAc(b1-4)GlcNAc
# Procedure, shortened: as §1
binder,measurement,setting,value
B1,glycan array binding signal (z-score),Glc(b1-6)Glc,-0.365
same,glycan array binding signal (z-score),GlcA(b1-3)Gal,-0.574
same,glycan array binding signal (z-score),GlcA(b1-3)GlcNAc,-0.168
same,glycan array binding signal (z-score),GlcA(b1-6)Gal,2.3
same,glycan array binding signal (z-score),[1],-0.629
same,glycan array binding signal (z-score),[2],0.386
same,glycan array binding signal (z-score),[3],-0.597
same,glycan array binding signal (z-score),[4],-0.325
same,glycan array binding signal (z-score),[5],-0.013
same,glycan array binding signal (z-score),[6],-0.336
same,glycan array binding signal (z-score),[7],-0.678
same,glycan array binding signal (z-score),[8],-0.638
same,glycan array binding signal (z-score),[9],-0.075
same,glycan array binding signal (z-score),[10],-0.027
same,glycan array binding signal (z-score),[11],0.024
same,glycan array binding signal (z-score),[12],-0.693
same,glycan array binding signal (z-score),[13],-0.524
same,glycan array binding signal (z-score),[14],-0.085
same,glycan array binding signal (z-score),[15],-0.461
same,glycan array binding signal (z-score),[16],-0.145
same,glycan array binding signal (z-score),[17],0.307
same,glycan array binding signal (z-score),[18],-0.324
same,glycan array binding signal (z-score),[19],-0.752
same,glycan array binding signal (z-score),[20],-0.782
same,glycan array binding signal (z-score),[21],-0.51
same,glycan array binding signal (z-score),[22],-0.457
same,glycan array binding signal (z-score),[23],-0.766
same,glycan array binding signal (z-score),GlcNAc(b1-3)Fuc,-0.505
same,glycan array binding signal (z-score),GlcNAc(b1-3)Gal,-0.353
same,glycan array binding signal (z-score),[24],-0.362
same,glycan array binding signal (z-score),GlcNAc(b1-3)Gal(b1-4)Glc,-0.351
same,glycan array binding signal (z-score),[25],-0.416
same,glycan array binding signal (z-score),[26],-0.375
same,glycan array binding signal (z-score),[27],2.15
same,glycan array binding signal (z-score),[28],0.976
same,glycan array binding signal (z-score),[29],-0.694
same,glycan array binding signal (z-score),[30],0.749
